Assay results as given in paper PMC4336329 (PLoS ONE, 2015).
The campaign covered roughly 310,000 compounds. About 2,200 (0.71%) showed an effect of 50% or more. Effects have a minus sign here. Some of the results follow.

These compounds were tested against human ether-à-go-go-related gene (hERG) potassium channel (human, UniProt Q12809) (assay: primary screen, population patch clamp on CHO cells stably expressing hERG).
Sequence of human ether-à-go-go-related gene (hERG) potassium channel (Q12809 whole entry, looked up): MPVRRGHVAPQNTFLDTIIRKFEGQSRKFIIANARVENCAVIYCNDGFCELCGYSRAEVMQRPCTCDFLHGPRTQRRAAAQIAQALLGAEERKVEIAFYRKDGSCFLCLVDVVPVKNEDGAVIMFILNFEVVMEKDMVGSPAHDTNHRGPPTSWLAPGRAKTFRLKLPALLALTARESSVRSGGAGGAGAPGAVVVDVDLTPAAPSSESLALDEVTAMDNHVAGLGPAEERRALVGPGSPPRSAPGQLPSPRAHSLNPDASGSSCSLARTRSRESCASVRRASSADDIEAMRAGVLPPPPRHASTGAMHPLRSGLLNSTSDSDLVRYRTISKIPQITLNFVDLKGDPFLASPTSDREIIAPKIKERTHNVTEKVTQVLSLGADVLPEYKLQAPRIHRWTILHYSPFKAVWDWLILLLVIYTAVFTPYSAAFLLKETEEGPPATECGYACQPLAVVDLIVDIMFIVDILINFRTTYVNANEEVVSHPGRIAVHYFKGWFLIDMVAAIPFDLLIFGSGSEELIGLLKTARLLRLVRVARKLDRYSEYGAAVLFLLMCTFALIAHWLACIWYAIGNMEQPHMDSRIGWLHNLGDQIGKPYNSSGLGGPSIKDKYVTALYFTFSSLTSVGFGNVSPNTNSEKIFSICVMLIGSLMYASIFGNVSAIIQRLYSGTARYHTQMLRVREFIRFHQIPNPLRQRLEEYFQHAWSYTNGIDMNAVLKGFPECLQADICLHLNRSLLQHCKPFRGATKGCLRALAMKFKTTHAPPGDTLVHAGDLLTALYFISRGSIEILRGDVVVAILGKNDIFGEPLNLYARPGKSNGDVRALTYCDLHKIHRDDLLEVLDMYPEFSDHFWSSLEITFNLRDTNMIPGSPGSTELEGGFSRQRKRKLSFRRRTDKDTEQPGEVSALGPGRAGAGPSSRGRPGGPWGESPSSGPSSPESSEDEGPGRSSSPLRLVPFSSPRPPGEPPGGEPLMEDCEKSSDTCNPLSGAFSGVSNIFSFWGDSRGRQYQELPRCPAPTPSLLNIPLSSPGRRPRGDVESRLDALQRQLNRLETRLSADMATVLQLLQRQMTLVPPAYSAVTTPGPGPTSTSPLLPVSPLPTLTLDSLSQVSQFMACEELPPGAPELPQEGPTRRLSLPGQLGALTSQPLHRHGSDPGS

Row | SMILES | hERG current change (%, negative = inhibition) at 1uM
1 | COc1ccc2nc(/N=C/c3cccc(OC)c3O)sc2c1 | 3.98%
2 | CC(C)C(C)(C#N)NC(=O)CSc1ncnc2sc(-c3ccccc3)cc12 (centres unmarked) | 13.7%
3 | CCOC(=O)CCS(=O)(=O)c1nc(-c2ccccc2)cc(C(F)(F)F)n1 | 14.3%
4 | O=C(O)C1CCCCC1C(=O)Nc1ccc(S(=O)(=O)N2CCCCC2)cc1 (centres unmarked) | 12.7%
5 | COC(C/C=C/[C@@H](O)COCc1ccccc1)OC | 10.7%
6 | O=C(CCCCCNC(=O)N1CCn2c1nc1ccccc12)NCCc1ccccc1 | 17.2%
7 | COc1cc(C(=O)NNC(=O)c2ccc(NC(=O)C(C)(C)C)cc2)cc(OC)c1OC | 11.9%
8 | CCOC(=O)c1c(/N=C/c2c(O)n(-c3ccc(F)cc3)c(=S)[nH]c2=O)sc2c1CCCC2 | 9.24%
9 | COc1ccc(C2=NN(c3nc4ccccc4s3)C(=O)/C2=C\N(C)C)cc1 | 10.4%
10 | Cc1ccc(-c2nnn(CC(=O)N(Cc3cccs3)C(C(=O)NC3CCCCC3)c3ccco3)n2)o1 (centres unmarked) | -1.64%
11 | CCc1noc(C)c1C(=O)NNC(=O)c1ccccc1 | 6.68%
12 | NC(=O)c1nsc(C(=O)N(c2ccc3c(c2)OCCO3)C(C(=O)NCC2CCCO2)c2ccc(F)cc2)c1N (centres unmarked) | 14.1%
13 | Cc1ccc(N2C(=O)C3C(c4ccccc4)N4CCCN4C3(C)C2=O)cc1 (centres unmarked) | 13.7%
14 | CCOC(=O)C1CCN(C(=O)c2ccc(OC3CCN(C(=O)CCOC)CC3)cc2)CC1 | 15%
15 | Cn1cccc1CC(=O)N/N=C\c1ccccc1 | 20.6%
16 | O=S(=O)(c1cccc2nsnc12)N1CCN(Cc2ccccc2)CC1 | 17.2%
17 | CC(C)C(NC(=O)c1c(F)cccc1F)C(=O)NCC(c1ccccc1)N(C)C (centres unmarked) | 7.89%
18 | COC(=O)c1ccccc1NCC(=O)c1ccc(OC)cc1 | 14%
19 | N#C/C(=C/c1ccc([N+](=O)[O-])cc1)C(=O)Nc1ccccc1O | 10.4%
20 | Cc1nc(CNC(=O)CC2C(=O)NCCN2Cc2cccc(Oc3ccccc3)c2)cs1 (centres unmarked) | 14%
21 | O=C(CCn1cccc(C(F)(F)F)c1=O)Nc1cccc(C(F)(F)F)c1 | 1.72%
22 | N/C(Cc1ccc(Cl)c(Cl)c1)=N\OC(=O)c1cccs1 | 13.4%

Row | SMILES | hERG current change (%, negative = inhibition) at 1uM
23 | c1ccc(-c2noc(-c3cccs3)n2)nc1 | 7.74%
24 | COc1cc([N+](=O)[O-])ccc1NC(=O)Nc1cccnc1 | 3.99%
25 | COC(=O)Nc1ccc(S(=O)(=O)N(CCO)CC(F)(F)C(F)F)cc1 | 18.7%
26 | O=C(/C=C/c1ccccc1)N/C(=C/c1ccccc1)C(=O)Nc1ccc(C(=O)O)cc1 | 10.1%
27 | COc1ccc(NC(=O)CSc2nnnn2C2CC3C=CC2C3)cc1 (centres unmarked) | 9.86%
28 | CC(C)CN1CCN(Cc2c[nH]c3ccccc23)CC1CCO (centres unmarked) | 11.2%
29 | COc1ccc(C(=O)OCC(=O)N(C)C2CCS(=O)(=O)C2)cc1S(=O)(=O)N1CCCc2ccccc21 (centres unmarked) | 12.3%
30 | CCn1nc(C)c(CN2CCN(Cc3cccc(OC)c3)C(CCO)C2)c1C (centres unmarked) | 4.87%
31 | Cc1ccccc1NS(=O)(=O)c1nnc(NC(=O)c2ccc(Br)cc2)s1 | 13.4%
32 | NC(=O)NC(=O)COC(=O)c1ccccc1Oc1ccccc1 | 11.6%
33 | NC(=O)Cn1nc(C(F)(F)F)c2c1CCCC2 | 10.4%
34 | Nc1c(Cl)c(Cl)nc(C(=O)N/N=C/c2cccnc2)c1Cl | 1.63%
35 | Nn1c(Nc2ccccc2)nc2sc3c(c2c1=O)CCCC3 | -8.36%
36 | C=CCc1ccc(OCC(O)CN2CCc3ccccc3C2)c(OC)c1.Cl (centres unmarked) | -42.1%
37 | COc1ccc(S(=O)(=O)Cc2ccc(C(=O)N3CCC4(CC3)OCCO4)o2)cc1 | 5.59%
38 | COc1cccc(NC(=O)[C@@H]2CCCN2C(=O)[C@@H]2Cc3ccccc3CN2C(=O)OC(C)(C)C)c1 | 15.6%
39 | COC(=O)C(Cc1csc2ccc(Cl)cc12)NC(=O)c1ccc(Cl)cc1 (centres unmarked) | 4.73%
40 | CC1CCN(CCOCCOc2ccccc2-c2ccccc2)CC1 | -21.6%
41 | Cc1ccccc1-n1cnc2c(sc3nc(N4CCOCC4)c4c(c32)CCCC4)c1=O | 1.51%
42 | Cc1ccc(S(=O)(=O)Nc2ccccc2/C=N/c2nc3ccccc3n2C(C)C)cc1 | -1.23%
43 | CCCS(=O)(=O)c1ccc(COC(=O)Cc2ccc([N+](=O)[O-])cc2)cc1 | 14.1%
44 | CN(C)S(=O)(=O)c1ccc(C(=O)NCCN2C(=O)S/C(=C\c3cccnc3)C2=O)cc1 | 1.77%

Row | SMILES | hERG current change (%, negative = inhibition) at 1uM
45 | COc1cc(OC)c(OC)cc1/C=N/NC(=O)c1cnccn1 | 11.4%
46 | O=C(O)c1ccccc1C(c1ccc(O)cc1)c1ccc(O)cc1 | 13.8%
47 | CC(=O)N1CCN(c2cc(N3CCCC3)c(F)cc2[N+](=O)[O-])CC1 | 10.5%
48 | CCn1c(COc2ccccc2)nnc1SCC(=O)Nc1ccc2c(c1)OCCO2 | 7.16%
49 | CCCN(CCC)C(=O)c1c(C)[nH]c(C(=O)OCC)c1C | 11.5%
50 | CCOC(=O)c1c(C)[nH]c(C(=O)CN2C(=O)NC(C)(c3ccc4ccccc4c3)C2=O)c1C (centres unmarked) | 3.22%
51 | COCCn1c(CN(Cc2ccccc2)Cc2ccccc2)nc2c1c(=O)n(C)c(=O)n2C | -10.4%
52 | CCOc1ccccc1OCC(=O)OCC(=O)c1c(C)[nH]c2ccccc12 | 8%
53 | COc1ccc(CNC(=O)[C@H](Cc2c[nH]c3ccccc23)NC(=O)[C@@H]2Cc3ccccc3CN2)cc1 | -9.44%
54 | O=C(Nc1ccc(C(F)(F)F)cc1)C1=NN(C2CCS(=O)(=O)C2)C(=O)CC1 (centres unmarked) | 1.57%
55 | COc1ccc(CCNC(=O)COc2ccc(N(C)S(=O)(=O)c3ccc(C)cc3)cc2)cc1 | 5.94%
56 | C=COCCn1c(C)c(C(=O)OCC)c2cc(O)ccc21 | 12.2%
57 | CC(c1ccccc1)N1CCn2c(nc3cc(NC(=O)c4cccs4)ccc32)C1 (centres unmarked) | 5.14%
58 | Cc1ccc(C2CC(=O)C=C(NCc3ccccc3)C2)cc1 (centres unmarked) | 3.27%
59 | COc1ccc(NC(=O)CN(C)C(=O)c2ccc(NS(=O)(=O)c3ccc(C)c([N+](=O)[O-])c3)cc2)cc1 | 11.7%
60 | CCOC(=O)C1CCCN(Cc2ccccc2C)C1 (centres unmarked) | 3.79%
61 | CCc1ccccc1NC(=O)C1CCCN(c2nn3c(=O)cc(C)nc3s2)C1 (centres unmarked) | 3.57%
62 | Cc1nnc(NC(=O)CCSc2ccccc2)s1 | 9.77%
63 | Cc1ccc(C(=O)NC2CCC(C)CC2)s1 (centres unmarked) | 8.27%
64 | Cc1nc(Nc2ccc3c(c2)OCCO3)c2oc3ccccc3c2n1 | 3.23%
65 | COC(=O)C1=C(c2ccc3ccccc3c2)C[C@@H]2CC[C@H]1N2C(=O)NCCO | 16.3%
66 | C[C@H](NC(=O)[C@@H]1CSC2c3ccccc3C(=O)N21)C(=O)NCc1c(F)cccc1Cl (some centres unmarked) | 7.02%

Row | SMILES | hERG current change (%, negative = inhibition) at 1uM
67 | COc1ccccc1N1CCN(C(=O)C2c3ccccc3Oc3ccccc32)CC1 | 3.6%
68 | COc1ccc(NC(C)=O)cc1NC(=O)c1ccc(Cl)cc1 | 1.2%
69 | O=C1COc2ccc(C(=O)COC(=O)c3sc4ccccc4c3Cl)cc2N1 | 4.07%
70 | Cc1cc(C(=O)COC(=O)Cc2n[nH]c(=O)c3ccccc23)c(C)n1-c1ccc2c(c1)OCO2 | 14.5%
71 | COc1ccc(S(=O)(=O)N2CCC(C(=O)NCc3cccnc3)CC2)cc1C | 11.3%
72 | COc1ccc(CN2CCN(C(=O)c3cccc4ccccc34)CC2)cc1Br | 9.47%
73 | O=C(CCSc1nnc(-c2ccco2)o1)N1CCOCC1 | -4.27%
74 | Cc1cc(NC(=O)c2cccs2)ccc1NC(=O)Cc1ccccc1 | 7.86%
75 | COc1ccc(-c2noc(CCC(=O)N3CCN(Cc4ccccc4)CC3)n2)cc1 | -9.14%
76 | COc1ccccc1N1C(=O)C2C(c3ccccc3F)NN(C(=O)c3ccc(C)cc3)C2C1=O (centres unmarked) | 3.2%
77 | COc1ccc(CSC2=NCCN2)cc1Br | 10.8%
78 | CC(C)(C)CN1C(=O)C(=O)NC[C@@H]1CCCCN | 17.2%
79 | Cn1c(CNc2ccccc2)cc(=O)n(C)c1=O | 10.3%
80 | COC1CCCCC1Nc1cc(C)ccc1C (centres unmarked) | 13.1%
81 | Nc1nnc(SCC(=O)Nc2cccc3ccccc23)s1 | 14.5%
82 | CCOc1ccccc1-c1nc(-c2ccncc2)no1 | 0.802%
83 | CC(C)C[C@H](NC(=O)c1nc[nH]c1C(=O)NCc1ccc(CNC(=O)OC(C)(C)C)cc1)C(=O)OC(C)(C)C | 10.6%
84 | Cc1ccc(-c2nn3c(C)nnc3c3ccccc23)cc1S(=O)(=O)NCCN1CCOCC1 | -3.77%
85 | CC(=O)c1ccc(NC(=O)CSc2nc(C)cc(C)c2C(N)=O)cc1 | 8.07%
86 | O=C(CC12CC3CC(C1)CC(CC(=O)N1CCCC1)(C3)C2)N1CCCC1 | -0.18%
